From patent US11351161B2, “Use of CDK9 inhibitors to reduce cartilage degradation” (THE REGENTS OF THE UNIVERSITY OF CALIFORNIA, priority 2011, dated 2022)
Several values for one entry are separate records, joined by “and”; a condition that tells them apart may be missing. Equal entries are not always repeated.

Columns and labels:
[1] = system: NFκB-target primary inflammatory response genes; assay: PCR array for NFκB targets in IL-1β-treated primary human chondrocytes; type: cell-based
[2] = system: human cartilage explants; assay: GAG release from IL-1β-treated human cartilage explants (DMMB assay); type: cell-based; conditions: 6 nM, 1 ng/ml IL-1β, 6 days
Description: The amount of glycosaminoglycan (GAG) released into the media was determined by the colorimetric dimethylmethylene blue dye-assay, with chondroitin sulfate as standard (Farndale, et al., Biochim Biophys Acta 883:173-177). The release of Col2a degradation products into the media was determined by measuring the amount of cleaved Col2a peptides (Poole, et al., J Immunol Methods (2004) 294:145-153.) with the […] ELISA kit (IBEX Pharmaceuticals) according to the manufacturer's protocol.

[3] = system: MMPs and ADAMTS4 (aggrecanase) mRNA; assay: IL-1β-induced expression of matrix-degrading enzymes in chondrocytes (real-time PCR); type: cell-based, human; conditions: co-treatment, 10 ng/ml IL-1β, 5 hours
[4] = system: iNOS mRNA; assay: iNOS mRNA induction by different inflammatory stimuli (IL-1β, LPS, TNFα) in chondrocytes; conditions: 300 nM, 10 ng/ml of either IL-1β, LPS or TNFα, 5 hours

CN1CC[C@H](c2c(O)cc(O)c3c(=O)cc(-c4ccccc4Cl)oc23)[C@H](O)C1 [Flavopiridol, 2-(2-chlorophenyl)-5,7-dihydroxy-8-[(3 S,4R)-3-hydroxy-1-methyl-4-piperidinyl]-4-chromenone]
repression of IL-1β activity on average across 3 donors, 54 inflammatory response genes ([1]; 300 nM, 10 ng/ml IL-1β, 5 hours): > 86% | IL-1β-induced expression of IL-6 in the presence of flavopiridol ([1]; 300 nM, 10 ng/ml IL-1β, 492-fold with IL-1β alone, listed as flavopiridol): 4.1 fold and 4.2 fold | inhibition of activation of NF-κB-dependent primary response genes, in most cases ([1]; IL-1β): > 90% | GAG released into the media [2]: reduced | IL-1β-induced expression of MMPs and ADAMTSs [3]: markedly suppressed | IL-1β-induced expression of MMPs and ADAMTSs ([3]; listed as flavopiridol): effectively suppressed | activation of iNOS expression in all three pathways [4]: greatly suppressed
